# Data published in the supplement of paper PMC8728848.
# The list shows a part of the results.
# Columns and labels:
# Assay in all cases: glycan array binding signal (z-score within array); higher = stronger binding
# Conditions in all cases: glycan notation: IUPAC condensed, linker removed
# [1] = target: Neu5Ac(a2-3)Gal(b1-4)GlcNAc(b1-6)[Gal(b1-3)]GalNAc
# Outline: (§1)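 Glycan array binding is given as a within-array Z-score, which can be read as non-binding when negative. The arrays, 3228 of them, came from the Consortium for Functional Glycomics database and were retained only where the protein sequence was available. Z-scores were averaged across arrays of the same protein sequence at different concentrations or buffers and across linkers.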
# [2] = target: Neu5Ac(a2-3)Gal(b1-4)GlcNAc6S
# Outline: as §1
# [3] = target: Neu5Ac(a2-3)Gal(b1-4)[Fuc(a1-3)]GlcNAc
# Outline: as §1
# [4] = target: Neu5Ac(a2-3)Gal(b1-4)[Fuc(a1-3)]GlcNAc(b1-3)Gal
# Outline: as §1
# [5] = target: Neu5Ac(a2-3)Gal(b1-4)[Fuc(a1-3)]GlcNAc(b1-3)Gal(b1-4)GlcNAc
# Outline: as §1
# [6] = target: Neu5Ac(a2-3)Gal(b1-4)[Fuc(a1-3)]GlcNAc(b1-3)Gal(b1-4)[Fuc(a1-3)]GlcNAc(b1-3)Gal(b1-4)[Fuc(a1-3)]GlcNAc
# Outline: as §1
# [7] = target: Neu5Ac(a2-3)Gal(b1-4)[Fuc(a1-3)]GlcNAc6S
# Outline: as §1
# [8] = target: Neu5Ac(a2-3)Gal6S(b1-4)GlcNAc
# Outline: as §1
# [9] = target: Neu5Ac(a2-3)Gal6S(b1-4)[Fuc(a1-3)]GlcNAc
# Outline: as §1
# [10] = target: Neu5Ac(a2-3)GalNAc
# Outline: as §1
# [11] = target: Neu5Ac(a2-3)GalNAc(b1-4)GlcNAc
# Outline: as §1
# [12] = target: Neu5Ac(a2-3)[GalNAc(b1-4)]Gal(b1-4)Glc
# Outline: as §1
# [13] = target: Neu5Ac(a2-3)[GalNAc(b1-4)]Gal(b1-4)GlcNAc
# Outline: as §1
# [14] = target: Neu5Ac(a2-3)[Neu5Ac(a2-6)]GalNAc
# Outline: as §1
# [15] = target: Neu5Ac(a2-6)Gal
# Outline: as §1
# [16] = target: Neu5Ac(a2-6)Gal(b1-4)Glc
# Outline: as §1
# [17] = target: Neu5Ac(a2-6)Gal(b1-4)GlcNAc
# Outline: as §1
# [18] = target: Neu5Ac(a2-6)Gal(b1-4)GlcNAc(b1-2)Man(a1-3)[Neu5Ac(a2-6)Gal(b1-4)GlcNAc(b1-2)Man(a1-6)]Man(b1-4)GlcNAc(b1-4)GlcNAc
# Outline: as §1
# [19] = target: Neu5Ac(a2-6)Gal(b1-4)GlcNAc(b1-3)Gal(b1-4)GlcNAc
# Outline: as §1
# [20] = target: Neu5Ac(a2-6)Gal(b1-4)GlcNAc(b1-3)Gal(b1-4)[Fuc(a1-3)]GlcNAc(b1-3)Gal(b1-4)[Fuc(a1-3)]GlcNAc
# Outline: as §1
# [21] = target: Neu5Ac(a2-6)Gal(b1-4)GlcNAc6S
# Outline: as §1
# [22] = target: Neu5Ac(a2-6)GalNAc
# Outline: as §1
# [23] = target: Neu5Ac(a2-6)GalNAc(b1-4)GlcNAc
# Outline: as §1
# [24] = target: Neu5Ac(a2-8)Neu5Ac
# Outline: as §1
# [25] = target: Neu5Ac(a2-8)Neu5Ac(a2-3)Gal(b1-4)Glc
# Outline: as §1
# [26] = target: Neu5Ac(a2-8)Neu5Ac(a2-3)[GalNAc(b1-4)]Gal(b1-4)Glc
# Outline: as §1
# [27] = target: Neu5Ac(a2-8)Neu5Ac(a2-8)Neu5Ac
# Outline: as §1
# [28] = target: Neu5Ac(a2-8)Neu5Ac(a2-8)Neu5Ac(a2-3)Gal(b1-4)Glc
# Outline: as §1
# [29] = target: Neu5Ac(a2-8)Neu5Ac(a2-8)Neu5Ac(a2-3)[GalNAc(b1-4)]Gal(b1-4)Glc
# Outline: as §1
# [30] = target: Neu5Ac(a2-8)Neu5Ac(a2-8)Neu5Ac(a2-8)Neu5Ac(a2-3)[GalNAc(b1-4)]Gal(b1-4)Glc
# Outline: as §1
# [31] = target: Neu5Ac(b1-6)GalNAc
# Outline: as §1
# [32] = target: Neu5Ac(b2-6)Gal(b1-4)GlcNAc
# Outline: as §1
# [33] = target: Neu5Ac9Ac(a2-6)Gal(b1-4)GlcNAc
# Outline: as §1
# [34] = target: Neu5Gc(a2-3)Gal(b1-3)GlcNAc
# Outline: as §1
# [35] = target: Neu5Gc(a2-3)Gal(b1-3)[Fuc(a1-4)]GlcNAc
# Outline: as §1
# [36] = target: Neu5Gc(a2-3)Gal(b1-4)Glc
# Outline: as §1
# [37] = target: Neu5Gc(a2-3)Gal(b1-4)GlcNAc
# Outline: as §1
# [38] = target: Neu5Gc(a2-3)Gal(b1-4)[Fuc(a1-3)]GlcNAc
# Outline: as §1
# [39] = target: Neu5Gc(a2-3)Gal(b1-4)[Fuc(a1-4)]GlcNAc
# Outline: as §1
# [40] = target: Neu5Gc(a2-6)Gal(b1-4)GlcNAc
# Outline: as §1
# [41] = target: Neu5Gc(a2-6)GalNAc
# Outline: as §1
binder,measurement,setting,value
"FBG3 (Homo sapiens), Q9H4M3 (protein) MAVGNINELPENILLELFTHVPARQLLLNCRLVCSLWRDLIDLVTLWKRKCLREGFITEDWDQPVADWKIFYFLRSLHRNLLHNPCAEEGFEFWSLDVNGGDEWKVEDLSRDQRKEFPNDQVKKYFVTSYYTCLKSQVVDLKAEGYWEELMDTTRPDIEVKDWFAARPDCGSKYQLCVQLLSSAHAPLGTFQPDPATIQQKSDAKWREVSHTFSNYPPGVRYIWFQHGGVDTHYWAGWYGPRVTNSSITIGPPLP",glycan array binding signal (z-score),[1],-0.608
same,glycan array binding signal (z-score),[2],-0.064
same,glycan array binding signal (z-score),[3],-0.293
same,glycan array binding signal (z-score),[4],-0.638
same,glycan array binding signal (z-score),[5],0.243
same,glycan array binding signal (z-score),[6],-0.514
same,glycan array binding signal (z-score),[7],-0.392
same,glycan array binding signal (z-score),[8],-0.101
same,glycan array binding signal (z-score),[9],-0.428
same,glycan array binding signal (z-score),[10],-0.343
same,glycan array binding signal (z-score),[11],-0.571
same,glycan array binding signal (z-score),[12],-0.404
same,glycan array binding signal (z-score),[13],-0.397
same,glycan array binding signal (z-score),[14],-0.518
same,glycan array binding signal (z-score),[15],0.511
same,glycan array binding signal (z-score),[16],-0.34
same,glycan array binding signal (z-score),[17],-0.28
same,glycan array binding signal (z-score),[18],-0.303
same,glycan array binding signal (z-score),[19],-0.545
same,glycan array binding signal (z-score),[20],-0.363
same,glycan array binding signal (z-score),[21],0.242
same,glycan array binding signal (z-score),[22],-0.355
same,glycan array binding signal (z-score),[23],-0.622
same,glycan array binding signal (z-score),[24],-0.471
same,glycan array binding signal (z-score),[25],-0.551
same,glycan array binding signal (z-score),[26],-0.623
same,glycan array binding signal (z-score),[27],-0.672
same,glycan array binding signal (z-score),[28],-0.429
same,glycan array binding signal (z-score),[29],0.271
same,glycan array binding signal (z-score),[30],-0.467
same,glycan array binding signal (z-score),[31],-0.207
same,glycan array binding signal (z-score),[32],-0.75
same,glycan array binding signal (z-score),[33],0.011
same,glycan array binding signal (z-score),[34],-0.078
same,glycan array binding signal (z-score),[35],-0.766
same,glycan array binding signal (z-score),[36],0.058
same,glycan array binding signal (z-score),[37],-0.448
same,glycan array binding signal (z-score),[38],-0.021
same,glycan array binding signal (z-score),[39],-0.596
same,glycan array binding signal (z-score),[40],-0.108
same,glycan array binding signal (z-score),[41],-0.211
